± gives the standard error. Variants at the background level are over-represented here.
B1: glmS ribozyme (parent)
chain: AUAAAAGCGCCAGAACUACAGAAAUGUAGUUGACGAGGAGGAGGUUUAUCGAAUUUUCGGCGGAUGCCUCCAAA

Tests used:
Settings in all cases: with glucosamine-6-phosphate
glucosamine-6-phosphate [1] = variants of: B1; assay: self-cleavage kobs at 640 uM GlcN6P; higher = faster cleavage; RNA array
Outline: (§1)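 Glucosamine-6-phosphate (40 μM to 10 mM) in HEPES/KCl/Mg(OAc)2 buffer was flowed over sequenced MiSeq chips, and tiles were imaged over ~14 h. Barcoded ribozyme variants there had been transcribed in situ by E. coli RNA polymerase and were tracked through a hybridised Cy3 probe at 37 °C. One- or two-exponential decay fits to per-tile medians, normalised to baseline and to non-cleaving reference variants, gave kobs. kcat and KM came from weighted Michaelis–Menten fits across concentrations.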

glucosamine-6-phosphate [2] = variants of: B1; assay: self-cleavage kobs at 2500 uM GlcN6P; higher = faster cleavage; RNA array
Outline: as §1

glucosamine-6-phosphate [3] = variants of: B1; assay: self-cleavage kobs at 10000 uM GlcN6P; higher = faster cleavage; RNA array
Outline: as §1

glucosamine-6-phosphate [4] = variants of: B1; assay: self-cleavage kobs at 160 uM GlcN6P; higher = faster cleavage; RNA array
Outline: as §1

Row | Variant | self-cleavage kobs at 640 uM GlcN6P (glucosamine-6-phosphate [1]) [s⁻¹] | self-cleavage kobs at 2500 uM GlcN6P (glucosamine-6-phosphate [2]) [s⁻¹] | self-cleavage kobs at 10000 uM GlcN6P (glucosamine-6-phosphate [3]) [s⁻¹] | self-cleavage kobs at 160 uM GlcN6P (glucosamine-6-phosphate [4]) [s⁻¹]
1 | A36G A42G U54A G59U | < 1e-05 | < 1e-05 | < 1e-05 | 
2 | G35U G38C G40C U54C | < 1e-05 |  |  | 
3 | G35U A53U | < 1e-05 |  |  | 
4 | A36C G38A | < 1e-05 |  | < 1e-05 | < 1e-05
5 | G35U U57A | < 1e-05 |  | < 1e-05 | 
6 | G40C G60A C70A | < 1e-05 |  |  | 
7 | A36U A52G C71A | < 1e-05 |  |  | < 1e-05
8 | A36C G60C | < 1e-05 |  |  | 
9 | G35U U47G | < 1e-05 | < 1e-05 |  | < 1e-05
10 | G35U U47C | < 1e-05 | < 1e-05 | < 1e-05 | < 1e-05
11 | A36G A42C | < 1e-05 | < 1e-05 | < 1e-05 | < 1e-05
12 | A36G A64U C71U | < 1e-05 | < 1e-05 |  | < 1e-05
13 | G35U A42U U54A A64G | < 1e-05 | < 1e-05 |  | 
14 | G35U G40U A42G G59U U65A U69G | < 1e-05 | < 1e-05 |  | 
15 | C34U G44U A53G C61U | < 1e-05 | < 1e-05 |  | 
16 | G38U A52C A53C C68A C71U | 0.000617 ± 0.00024 |  |  | 
17 | G37A A53U C61U | < 1e-05 | < 1e-05 |  | < 1e-05
18 | G35C A36G A39G A52U G63C U65C | < 1e-05 | < 1e-05 |  | < 1e-05
19 | G37A U46G G63U | < 1e-05 |  | < 1e-05 | 
20 | G35U G37C | < 1e-05 | < 1e-05 |  | < 1e-05
21 | G35C C61G C68U | < 1e-05 | < 1e-05 |  | 
22 | G35C G66U | < 1e-05 | < 1e-05 |  | < 1e-05
23 | G38A A39C G44U U65G C70G | < 1e-05 |  |  | 

Row | Variant | self-cleavage kobs at 640 uM GlcN6P (glucosamine-6-phosphate [1]) [s⁻¹] | self-cleavage kobs at 2500 uM GlcN6P (glucosamine-6-phosphate [2]) [s⁻¹] | self-cleavage kobs at 10000 uM GlcN6P (glucosamine-6-phosphate [3]) [s⁻¹] | self-cleavage kobs at 160 uM GlcN6P (glucosamine-6-phosphate [4]) [s⁻¹]
24 | A36U G60U | < 1e-05 | < 1e-05 | < 1e-05 | 
25 | A39U U49C | < 1e-05 |  | < 1e-05 | < 1e-05
26 | A39U U49G | 0.000168 ± 5.1e-05 |  |  | 
27 | A39G G51U G63U | < 1e-05 | < 1e-05 |  | 
28 | A36G A42U C71U | < 1e-05 | < 1e-05 |  | 
29 | G35A G44A A64C | < 1e-05 | < 1e-05 |  | 
30 | G35C A53G U57A | < 1e-05 |  |  | 
31 | G38C G41A C58A | < 1e-05 | < 1e-05 |  | < 1e-05
32 | G35U A39U | < 1e-05 | < 1e-05 |  | < 1e-05
33 | A36C U46G U54A U55G | < 1e-05 |  |  | 
34 | A39U U54C G62C | < 1e-05 | < 1e-05 |  | < 1e-05
35 | G35U A48G C50U | < 1e-05 |  | < 1e-05 | 
36 | G35A U55G G63A A64G | < 1e-05 |  |  | 
37 | G38A G44U C50A | < 1e-05 |  |  | 
38 | G40A G44A U56G C71G | < 1e-05 | < 1e-05 |  | 
39 | G35C G59U G63U C70U | < 1e-05 |  |  | 
40 | G38C U47C C58U A64C C67G | < 1e-05 | < 1e-05 |  | 
41 | G35U G43U G51C U55G C71A | < 1e-05 | < 1e-05 | < 1e-05 | 
42 | A36G U69G | 4.85e-05 ± 1.9e-05 |  |  | 3.18e-05 ± 1.6e-05
43 | A36G G51A G62C | < 1e-05 | < 1e-05 |  | 
44 | G37C G43C G51A | < 1e-05 | < 1e-05 |  | 
45 | G38C U46A | < 1e-05 | < 1e-05 |  | < 1e-05
46 | G38C U55A G59U | < 1e-05 | < 1e-05 |  | 

Row | Variant | self-cleavage kobs at 640 uM GlcN6P (glucosamine-6-phosphate [1]) [s⁻¹] | self-cleavage kobs at 2500 uM GlcN6P (glucosamine-6-phosphate [2]) [s⁻¹] | self-cleavage kobs at 10000 uM GlcN6P (glucosamine-6-phosphate [3]) [s⁻¹] | self-cleavage kobs at 160 uM GlcN6P (glucosamine-6-phosphate [4]) [s⁻¹]
47 | A36C A39C | < 1e-05 |  | < 1e-05 | < 1e-05
48 | A36G A39C U47G | < 1e-05 | < 1e-05 | < 1e-05 | 
49 | G40C G60U A64U | < 1e-05 |  | < 1e-05 | 
50 | G38U U46C U55C | < 1e-05 |  |  | 
51 | A39G G60C | < 1e-05 |  |  | < 1e-05
52 | G38C G44C A64G | < 1e-05 |  |  | 
53 | G35A G59U G62A | < 1e-05 | < 1e-05 |  | 
54 | G35C G41A U49A C58G C71U | < 1e-05 |  |  | 
55 | C34U U54C | < 1e-05 | < 1e-05 |  | < 1e-05
56 | G38A G60C | < 1e-05 | < 1e-05 | < 1e-05 | 
57 | A39C G60U | < 1e-05 |  | < 1e-05 | 
58 | G40U G44U C68U | < 1e-05 |  |  | 
59 | A36U U46C C68G | < 1e-05 | < 1e-05 |  | 
60 | G37U A42C C50A A64U | < 1e-05 |  |  | 
61 | G35C G38C G59U | < 1e-05 |  |  | 
62 | G38A G41A U45C A52G | < 1e-05 |  |  | < 1e-05
63 | G37C U56A U69G C70U | < 1e-05 |  |  | 
64 | C34U G40C G62U | < 1e-05 |  |  | 
65 | A36G G38U U57A G59C | < 1e-05 | < 1e-05 |  | 
66 | G38U G60C | < 1e-05 |  |  | < 1e-05
67 | A39C A42C C67G C68A C70G | < 1e-05 | < 1e-05 |  | 
68 | G40C A48C U49A A53G | < 1e-05 |  |  | < 1e-05
69 | A39U U46G A48U G63U | < 1e-05 |  |  | 

Row | Variant | self-cleavage kobs at 640 uM GlcN6P (glucosamine-6-phosphate [1]) [s⁻¹] | self-cleavage kobs at 2500 uM GlcN6P (glucosamine-6-phosphate [2]) [s⁻¹] | self-cleavage kobs at 10000 uM GlcN6P (glucosamine-6-phosphate [3]) [s⁻¹] | self-cleavage kobs at 160 uM GlcN6P (glucosamine-6-phosphate [4]) [s⁻¹]
70 | G35U G59A A64G C71U | < 1e-05 |  |  | 
71 | A36U C58A G59U | < 1e-05 |  |  | 
72 | G35U U47A G63A | < 1e-05 | < 1e-05 |  | 
73 | A36U G41A A48U | < 1e-05 |  |  | 
74 | G38C U49G G59U U65G | < 1e-05 |  |  | 
75 | G38A G40U G43A A52C | < 1e-05 |  |  | 
76 | A36G U55G C67G | < 1e-05 |  |  | 
77 | A39U G41A | 0.00014 ± 1.5e-05 | 0.00025 ± 2.7e-05 | 0.000257 ± 3e-05 | 5.88e-05 ± 1.3e-05
78 | G38A C61U C68U | < 1e-05 |  |  | 
79 | G35A A36C U57C C61U | < 1e-05 | < 1e-05 |  | 
80 | G38U C50A C61U | < 1e-05 |  |  | 
81 | G38U A42C G62A | < 1e-05 |  |  | 
82 | G35C G51A | < 1e-05 |  |  | 
83 | A36U U55C | < 1e-05 |  |  | < 1e-05
84 | G40C C50A | < 1e-05 |  | < 1e-05 | 
85 | G35A A36U G41A C58A | < 1e-05 | < 1e-05 |  | 
86 | G35U U47C C50A G51C C58A G63A U69A | < 1e-05 |  |  | 
87 | G35C C67G C71G | < 1e-05 |  |  | 
88 | A36C A39U U54A C67G | < 1e-05 | < 1e-05 |  | 
89 | A39C U49C A52U | < 1e-05 | < 1e-05 |  | 
90 | G35C G40U A52U G63U | < 1e-05 | < 1e-05 |  | 
91 | A39G G44C A48C C71G | < 1e-05 | < 1e-05 |  | < 1e-05
92 | G38U U54A | < 1e-05 | < 1e-05 |  | < 1e-05

Row | Variant | self-cleavage kobs at 640 uM GlcN6P (glucosamine-6-phosphate [1]) [s⁻¹] | self-cleavage kobs at 2500 uM GlcN6P (glucosamine-6-phosphate [2]) [s⁻¹] | self-cleavage kobs at 10000 uM GlcN6P (glucosamine-6-phosphate [3]) [s⁻¹] | self-cleavage kobs at 160 uM GlcN6P (glucosamine-6-phosphate [4]) [s⁻¹]
93 | A36C G37A A48U | < 1e-05 |  |  | 
94 | G35C G38A | < 1e-05 | < 1e-05 |  | 
95 | A36G G43U A53C | < 1e-05 |  |  | < 1e-05
96 | G40C A64U | < 1e-05 |  |  | < 1e-05
97 | G35C A36U | < 1e-05 | < 1e-05 | < 1e-05 | < 1e-05
98 | G38A U45G U46C C50G A52C | < 1e-05 | < 1e-05 |  | 
99 | G38U G51U G60C | < 1e-05 |  | < 1e-05 | < 1e-05
100 | C34U G41C U54C | < 1e-05 | < 1e-05 |  | < 1e-05
101 | G35C G40U C70G | < 1e-05 | < 1e-05 |  | < 1e-05
102 | G38C U47G | < 1e-05 | < 1e-05 |  | < 1e-05
103 | G35C A48G A53G | < 1e-05 |  |  | 
104 | G35C G37U | < 1e-05 |  |  | 
105 | G38C U54A | < 1e-05 | < 1e-05 |  | 
106 | G40U U45C G59A G63A | < 1e-05 | < 1e-05 |  | 
107 | G35C G38C G41A | < 1e-05 | < 1e-05 |  | < 1e-05
108 | G37U G44A | < 1e-05 | < 1e-05 |  | < 1e-05
109 | G37A U54C C70U | 0.000626 ± 0.00016 | 0.00117 ± 0.00025 |  | 
110 | G38A A39C G40U G43A U49G U54C | < 1e-05 | < 1e-05 |  | < 1e-05
111 | G38U G44U G51C | < 1e-05 | < 1e-05 |  | 
112 | G37U A48U A52U | < 1e-05 | < 1e-05 |  | 
113 | G40U C68G | < 1e-05 | < 1e-05 | < 1e-05 | < 1e-05
114 | G35C A39C G43C U56A | < 1e-05 |  |  | 
115 | A36U A39U C71U | < 1e-05 |  |  | 
